Assay results as given in PubChem BioAssay AID1508642 (National Center for Advancing Translational Sciences (NCATS), 2021).
Hit rate of the full screen: of about 43,000 compounds, about 200 (0.47%) were called active. Roughly 12% stayed inconclusive and do not appear here. Calls come from the whole dose curve; as a rule, active = well fitted cell-killing curve with a large enough effect; inconclusive = small, poorly fitted or top-dose-only effect, or effect the other way; inactive = flat fitted curve, though single readings scatter. The list shows a part of the results.

assay: Cell viability qHTS assay in S16 Pmp22-F2sN cells; conditions: S16 Pmp22-F2sN Schwann cells viability, CellTiter-Glo, 24 h; series mostly up to 57.5 µM; activity change, negative = cytotoxicity: at the top concentration; note: nearly all actives have a fitted effect of over 65% in size
In short: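 Viability was measured by CellTiter-Glo luminescence (15 min, room temperature). This followed 24 h at 37 °C of compound exposure (23 nL pin transfer) in S16 Pmp22-F2sN Schwann cells, 500-1,000 per well.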
% is set by controls: 0 for no effect and ±100 for the full control effect.

| SMILES | activity change, negative = cytotoxicity |
| --- | --- |
| CC(C)Cn1cc(NC(=O)N2CCN(c3ccc(F)cc3)CC2)c2ccccc2c1=O | inactive: 7.11% |
| COc1cc(OC)cc(-c2nc3nc(C)c(CCC(=O)Nc4cc(C)cc(C)c4)c(C)n3n2)c1 | inactive: 15.1% |
| CCCCn1c(=O)n(CC2CCC(C(=O)NCCCOC)CC2)c(=O)c2sccc21 (stereo not drawn) | inactive: -0.676% |
| O=C(NCc1ccc(Cl)cc1)C1CCN(S(=O)(=O)c2cccc3nonc23)CC1 | inactive: 14.1% |
| Cc1ccc(-c2cnc(C3CC3)o2)cc1S(=O)(=O)Nc1cccc(C)c1C | inactive: -9.08% |
| CC(C)(C)OC(=O)N1CCC(c2c(C(=O)N3CCN(c4ccccn4)CC3)cnn2-c2ccc(F)cc2F)CC1 | inactive: -0.152% |
| COc1ccc2[nH]c3c(c2c1)CCN(C(=O)CCC1CCCC1)C3c1ccc(F)cc1 (stereo not drawn) | inactive: -10.1% |
| O=C(CC1N=C2c3ccccc3N=C(SCc3ccc(F)cc3)N2C1=O)NCCc1ccccc1 (stereo not drawn) | inactive: -22.6% |
| O=C(CSc1nccn1-c1ccc(F)cc1)Nc1nc2ccccc2s1 | inactive: -12.9% |
| Cc1cccc(Cn2c(-c3ccccc3)nc3ccccc32)c1 | inactive: -15.2% |
| COc1ccc(Cl)cc1NCc1nnc2n1CCCCC2 | inactive: -1.79% |
| COc1ccc(NC(=O)c2oc3ccccc3c2NC(=O)c2cc(=O)c3cc(Cl)ccc3o2)cc1 | inactive: 5.04% |
| COC(=O)c1c(NC(=O)c2ccc(OC)cc2OC)sc2c1CCCCC2 | inactive: 6.29% |
| COc1ccc(CC(C)NS(=O)(=O)c2ccc3c(c2)CCN3S(C)(=O)=O)cc1OC (stereo not drawn) | inactive: -2.52% |
| COc1ccc(NC(=O)C2CCCN(S(=O)(=O)c3c(C)[nH]c(=O)[nH]c3=O)C2)cc1OC (stereo not drawn) | inactive: -18.6% |
| CCn1c(=O)c2cc(C(=O)NCc3cc(OC)ccc3OC)sc2c2ccccc21 | inactive: 9.34% |
| Cc1ccc(NC(=O)C2CCCN(c3ncnc4c3nc3n4CCCCC3)C2)c(Br)c1 (stereo not drawn) | inactive: 8.87% |
| CC(C)(C)c1ccc(C(=O)NCC(=O)OCc2cc(=O)n3nc(C4CC4)sc3n2)cc1 | inactive: 2.81% |
| O=C(Nc1sc2c(c1C(=O)NCc1ccco1)CCCC2)c1cc(=O)c2cc(Cl)ccc2o1 | inactive: 5.19% |
| Cc1nnc(N2CCN(C(=O)NCCC(C)C)CC2)c2nn(-c3ccc(Cl)cc3)c(C)c12 | inactive: 1.12% |
| Cc1cc(C)c2nc(C)cc(Nc3cccc(C(=O)O)c3)c2c1 | inactive: -1.24% |
| CCOc1cc(C(=O)Nc2cc3c(cc2N2CCCC2)n(C)c(=O)c(=O)n3C)cc(OCC)c1OCC | inactive: -2.92% |
| Cc1cccc(C(=O)Nc2cc3c(cc2C)n(C)c(=O)n3C)c1 | inactive: 3.93% |
| CCC(=O)N1CCc2cc(Br)cc(S(=O)(=O)NCCc3cccc(C)c3)c21 | inactive: 4.14% |

| SMILES | activity change, negative = cytotoxicity |
| --- | --- |
| CC(=O)N1CCc2cc(S(=O)(=O)NC(Cc3ccccc3)C(=O)NCc3ccccc3)ccc21 (stereo not drawn) | inactive: -1.38% |
| COCc1nc2ccccc2n1Cc1ccc(C(C)(C)C)cc1 | inactive: -28.7% |
| CC(=O)Nc1ccc(NC(=O)c2ccc3c(c2)N(Cc2cccc(Cl)c2)C(=O)c2ccccc2S3=O)cc1 (stereo not drawn) | inactive: -8.94% |
| Cc1ccc(Cn2c(=O)n(Cc3ccccc3)c(=O)c3oc4ccccc4c32)cc1 | inactive: -0.846% |
| CC(=O)N1CCC(N(Cc2ccc(C)o2)C(=O)Nc2cccc(C(F)(F)F)c2)CC1 | inactive: 0.329% |
| Cc1ccc2c(c1)-c1nc(-c3ccc4c(c3)NC(=O)CO4)cc(-c3ccccc3)c1CO2 | inactive: 18.8% |
| Cc1ccc(C)c(NC(=O)CN2C(=O)CCc3cc(S(=O)(=O)N4CCCCC4)ccc32)c1 | inactive: -11.2% |
| O=C(CCCCn1c(=O)c2ccccc2n(Cc2cccc(F)c2)c1=O)NCCc1ccccc1 | inactive: 26.7% |
| COc1ccccc1NC(=O)Cn1c(C)cc(C)c(C#N)c1=O | inactive: -4.13% |
| COc1ccc(NC(=O)Nc2cc(-c3cn4cccnc4n3)ccc2C)cc1 | inactive: 1.61% |
| CC(=O)N1CCc2c(sc3c2c(=O)n(-c2ccccc2)c(=O)n3CC(=O)c2ccccc2)C1 | inactive: 3.24% |
| COc1cccc(CSc2nc3ccncc3n2CC(=O)Nc2ccc(OC)c(OC)c2OC)c1 | inactive: -6.92% |
| CCC1CN(C(=O)N2CCC(C(=O)NCCc3ccc(OC)cc3OC)CC2)c2cc(C)ccc2O1 (stereo not drawn) | inactive: -23.3% |
| Cc1cccc(OCc2nc(CC(=O)Nc3ccc(Cl)cc3)cs2)c1 | inactive: 1.19% |
| Cc1cc(Nc2ccc(Br)cc2)nc(C)n1 | inactive: -0.569% |
| Cc1cccc(C)c1-n1ncc(C(=O)NCCCN2CCC(C)CC2)c1C1CCN(C(=O)OC(C)(C)C)CC1 | inactive: -4.32% |
| COc1cccc(NC(=O)CCN2C(=O)c3ccccc3Sc3ncccc32)c1 | inactive: 3.8% |
| Cc1cc(C)nc(-n2nc(C)c3c2N(Cc2ccccc2F)C(=O)CC3c2ccc(Cl)cc2)n1 (stereo not drawn) | inactive: -25.6% |
| CCc1ccccc1NC(=O)C1CCN(S(=O)(=O)c2cn(C)cn2)CC1 | inactive: -3.45% |
| CCOC(=O)c1sc2ccccc2c1S(=O)(=O)NCc1ccccc1OC | inactive: 9.15% |
| COc1ccccc1CNC(=O)Cc1csc2nc(-c3ccc(F)cc3)cn12 | inactive: 5.09% |
| CCc1cc2c(cc3c(=O)n(CC(=O)NC(C)c4ccccc4)ncn32)s1 (stereo not drawn) | inactive: -0.551% |
| Cn1ncc2c(N3CCN(c4ccc(F)cc4)CC3)ncnc21 | inactive: -7.99% |
| O=C(Cc1ccc(-c2ccccc2)cc1)NCCS(=O)(=O)N1CCN(c2ccc(F)cc2)CC1 | inactive: -0.573% |
